Each structure is given as a SMILES string. Where “and” joins values, the source holds several entries; their conditions need not be identical. Equal entries are not always repeated. In all, about 16,000 compounds went through this assay and about 40 (0.2%) were called active. Another 1% or so got no clear call; they are omitted. The call rests on the fitted dose curve; in most records, active means well fitted activation curve with a large enough effect; inconclusive means small, poorly fitted or top-dose-only effect, or another doubt; inactive means no such curve, though single readings can be large or run the other way. The list shows a part of the results. More than one record can exist for a structure, and the calls need not agree.
On the % scale 0 is the no-effect control and ±100 the full control effect.

The assay deals with Rap guanine nucleotide exchange factor 4 (Homo sapiens) (UniProt Q8WZA2). In words: Validation qHTS for agonist of cAMP-regulated guanine nucleotide exchange factor 4 (EPAC2).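 Further: exchange makes BODIPY-GDP fluorescence drop when released from Rap1B; series mostly up to about 150 µM.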 To be noted: EPAC2 Rap1B BODIPY-GDP exchange, fluorescence; activation: stronger effect = higher value. A digest of the protocol: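 Signal normalized against 6.5 mM cAMP as agonist control. Mix of EPAC2 (100 nM), RAP1B-BODIPY-GDP (250 nM) and GDP (50 uM) was read kinetically at 480/540 nm, every 5 min over 30 min, after 5 min room-temperature incubation with compound.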
Chain of UniProt Q8WZA2 (Q8WZA2 whole entry, looked up): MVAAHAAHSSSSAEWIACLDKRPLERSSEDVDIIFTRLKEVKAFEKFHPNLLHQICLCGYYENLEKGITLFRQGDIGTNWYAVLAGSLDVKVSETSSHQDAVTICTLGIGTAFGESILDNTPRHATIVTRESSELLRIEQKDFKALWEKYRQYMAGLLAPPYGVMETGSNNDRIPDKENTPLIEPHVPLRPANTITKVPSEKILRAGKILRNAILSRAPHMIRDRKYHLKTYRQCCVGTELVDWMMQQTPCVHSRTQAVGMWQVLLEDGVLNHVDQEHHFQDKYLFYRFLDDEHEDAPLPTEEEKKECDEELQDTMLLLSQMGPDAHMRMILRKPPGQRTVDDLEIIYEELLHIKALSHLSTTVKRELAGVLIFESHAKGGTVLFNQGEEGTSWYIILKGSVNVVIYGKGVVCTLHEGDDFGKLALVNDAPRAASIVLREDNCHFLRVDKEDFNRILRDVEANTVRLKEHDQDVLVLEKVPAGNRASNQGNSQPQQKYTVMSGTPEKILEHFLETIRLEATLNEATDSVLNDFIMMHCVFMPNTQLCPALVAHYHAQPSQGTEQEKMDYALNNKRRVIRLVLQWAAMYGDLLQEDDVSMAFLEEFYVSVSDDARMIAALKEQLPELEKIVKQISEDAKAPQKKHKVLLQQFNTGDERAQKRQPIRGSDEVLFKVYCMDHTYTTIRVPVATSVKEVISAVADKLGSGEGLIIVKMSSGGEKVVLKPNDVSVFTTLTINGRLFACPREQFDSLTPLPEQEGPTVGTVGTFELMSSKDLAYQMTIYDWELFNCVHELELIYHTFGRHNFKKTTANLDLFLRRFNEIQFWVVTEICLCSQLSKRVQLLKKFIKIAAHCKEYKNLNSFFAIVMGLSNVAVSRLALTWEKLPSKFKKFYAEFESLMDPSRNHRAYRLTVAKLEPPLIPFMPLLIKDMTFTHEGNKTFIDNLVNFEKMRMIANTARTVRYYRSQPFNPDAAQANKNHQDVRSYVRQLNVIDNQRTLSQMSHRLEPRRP
Background: In qHTS, concentration-response curves come from the screen itself.
`CN1C2CCC1CC(OC(=O)c1cc(Cl)cc(Cl)c1)C2` (stereo not drawn): the activation was inactive: 1.87%.

For `O=C(O)Cc1cnc[nH]1`, the activation is inactive: -8.84% and inactive: 14.8% and inactive: -45.7%.

Regarding `CCOC(=O)NC(O)C(Cl)(Cl)Cl` (stereo not drawn), the activation is inactive: -1.6%.

Consider `COc1ccc(C(c2ccc(OC)cc2)C(Cl)(Cl)Cl)cc1`, for which the activation was inactive: -7.92% and inactive: -7.49%.

Regarding `O=C(Oc1ccccc1)N1CCC2(CCCN(Cc3ccccc3)C2)CC1`, the activation is inactive: -6.92%.

As to `COC(=O)NC(=S)Nc1ccccc1NC(=S)NC(=O)OC`, the activation is inactive: -7.7%.

For the compound `CCN1C[C@]2(COC)[C@H](O)C[C@H](OC)[C@]34C1C([C@H](OC)[C@H]23)[C@]1(OC(C)=O)C2[C@@H](OC(=O)c3ccccc3)C(O)(C[C@H]24)[C@@H](OC)[C@@H]1O`, the activation was inactive: 8.74%.

On to `CCC1(CC)C(=O)NC(=O)N(C)C1=O`, for which the activation is inactive: -23.5%.

With `COC(C)C(O)(C(=O)OC1=CCN2CC[C@H](O)[C@H]12)C(C)C` (stereo partly drawn), the activation is inactive: -4.67%.

Consider `CCC1CN2CCC1CC2C(O)c1ccnc2ccccc12` (stereo not drawn), for which the activation was inactive: -0.326%.

Turning to `CCCCC/C=C\C/C=C\C/C=C\CCCCCCC(=O)NCCO`, the activation is inactive: -0.939%.

For the compound `CCc1cc(OC)c(C[C@@H](C)N)cc1OC`, the activation was inactive: -1.7%.

Consider `O=C1C=CC(=O)C=C1`, for which the activation was inactive: -26.4%.

Take `CCC(=O)O[C@](Cc1ccccc1)(c1ccccc1)[C@H](C)CN(C)C`: the activation was inactive: -28.2%.

On to `CCOP(=S)(OCC)Oc1ccc2c(C)c(Cl)c(=O)oc2c1`, for which the activation was inactive: -24.7%.

Regarding `CCOC(=O)[C@]12Cc3cc4c(cc3[C@H]1N(Cc1ccccc1)C(=O)c1ccccc12)OCO4`, the activation was inactive: -14.3%.

As for `C[C@@H](Cc1cccc(C(F)(F)F)c1)NCCCc1ccccc1`, the activation was inactive: -8.13%.

As for `CC(C)[C@]1(NC(=O)[C@@H]2C=C3c4cccc5[nH]cc(c45)C[C@H]3N(C)C2)O[C@@]2(O)C3CCCN3C(=O)[C@H](Cc3ccccc3)N2C1=O` (stereo partly drawn), the activation was inactive: 17.9%.

Take `O=P(O)(O)C(Cl)(Cl)P(=O)(O)O`: the activation is inactive: -33.3%.

Consider `COc1cc(C2c3cc4c(cc3C(O)C3COC(=O)C23)OCO4)cc(OC)c1O` (stereo not drawn), for which the activation was inactive: -5.02%.

Turning to `C[C@]12C/C(=C/O)C(=O)C[C@@H]1CC[C@@H]1[C@@H]2CC[C@@]2(C)[C@H]1CC[C@]2(C)O`, the activation was inactive: -18.4%.

In the case of `CC(C)=CCN1CC[C@]2(C)c3cc(O)ccc3C[C@H]1[C@H]2C`, the activation was inactive: 0.962%.

Turning to `C[C@H]1CNCCc2ccc(Cl)cc21`, the activation is inactive: 3.16%.

Take `O=C(O)c1cc[c]([Hg][Cl])cc1`: the activation was inactive: -22.4%.

As for `FC(F)(F)c1cccc(N2CCNCC2)c1`, the activation was inactive: -2.91%.

Take `CC1=NN=C(c2ccc(N)cc2)c2cc3c(cc2C1)OCO3`: the activation is inactive: -34.2%.

In the case of `COc1cc(=O)n2c(c1C(=O)N(C)Cc1nonc1C)CCN(C(=O)C1C(C)(C)C1(C)C)CC2`, the activation is inactive: 7.62%.

Regarding `CC(=O)O.CC(=O)O.[Cd]`, the activation was inactive: -17.7%.

Turning to `CC1CC(Cl)CCC1C(=O)OC(C)(C)C` (stereo not drawn), the activation was inactive: 0.367%.

For `Cc1c(O)c(O)cc2c1CC=C1[C@]3(C)CC[C@]4(C)CC[C@@](C)(C(=O)O)CC4[C@]3(C)CC[C@]12C` (stereo partly drawn), the activation is inactive: -14.1%.

For the compound `COc1ccccc1N1CCNCC1`, the activation was inactive: 2.1% and inactive: -22% and inactive: 12.3%.

With `CC1(C)S[C@H]2[C@@H](N)C(=O)N2[C@H]1C(=O)O`, the activation was inactive: 2.37%.

On to `CC(=O)[C@H]1CC[C@H]2[C@@H]3CC[C@H]4C[C@H](O)CC[C@]4(C)[C@H]3C(=O)C[C@]12C`, for which the activation was inactive: -6.54% and inactive: -27.4%.

For `CCOc1cc(C=O)ccc1O`, the activation is inactive: -6.75%.

For `CC1CC2CC(=O)C3CCCN4CCCC2[C@]34C1` (stereo partly drawn), the activation was inactive: -10.7%.

Turning to `C=C1C[C@@H]2[C@H](CC[C@]3(C)C(=O)CC[C@@H]23)[C@@]2(C)C=CC(=O)C=C12`, the activation was inactive: -11.3%.

On to `CNC(C)Cc1ccccc1OC` (stereo not drawn), for which the activation was inactive: -6.91%.

Take `CC(=O)OC1C[C@@]2(C)C(c3ccoc3)C[C@H]3O[C@@]32[C@@]2(C)C(=O)C(O)=C3C(C)(C)C(=O)C=C[C@]3(C)C12` (stereo partly drawn): the activation is inactive: -1.74%.

`CC1C(=O)OC2CCN3CC=C(COC(=O)[C@](C)(O)[C@]1(C)O)C23` (stereo partly drawn): the activation is inactive: -7.44%.

`CCCCC/C=C\C/C=C\C/C=C\C/C=C\CCCC(=O)NCC(=O)O`: the activation is inactive: -20.4% and inactive: -6.2%.

Consider `O=C(Nc1cccc(F)c1)N1CC2(CCN(C(=O)Oc3ccccc3)CC2)C1`, for which the activation is inactive: 9.35%.

On to `O=C(N[C@H]1N=C(c2ccccc2F)c2cccc3c2N(CC3)C1=O)c1cc2ccccc2[nH]1`, for which the activation was inactive: -1.47%.

With `C=C1C([C@@]2(C)C(OC(C)=O)CC(=O)O[C@@](C)(COC(C)=O)C2CC(=O)OC)C(OC=O)C(OC(=O)C(OC(C)=O)C(C)CC)[C@]2(C)C(c3ccoc3)CC(=O)C12O` (stereo partly drawn), the activation was inactive: -32.9%.

Take `ClCCN(CCCl)c1ccc(C=Nc2ccc(/C=C/c3ccnc4ccccc34)cc2)cc1`: the activation was inactive: 8.72%.

As to `CS(=O)(=O)N1CCC2(CCCN(Cc3ccncc3)C2)CC1`, the activation was inactive: -4.05%.

With `O=C1NCN(c2ccccc2)C12CCN(C[C@H]1COc3ccccc3O1)CC2`, the activation is inactive: -0.816%.

For `CC(O)CN1CCN(CC(=O)[O-])CCN(CC(=O)[O-])CCN(CC(=O)[O-])CC1.[Gd+3]` (stereo not drawn), the activation was inactive: -3.81% and inactive: -4.93%.

Regarding `NC(=O)[C@H](Cc1ccccc1)NC(=O)[C@H](Cc1c[nH]c2ccccc12)NC(=O)[C@@H]1CCCN1C(=O)[C@@H](N)Cc1ccc(O)cc1`, the activation is inactive: 6.05%.

As for `O=C(c1ccco1)N1CCC2(CC1)CN(Cc1ccncc1)C2`, the activation was inactive: 2.41%.

Regarding `CCN(Cc1ccc(Cl)nc1)/C(=C/[N+](=O)[O-])NC`, the activation is inactive: -28.3%.

Take `C1CN(P2(N3CC3)=NP(N3CC3)(N3CC3)=NP(N3CC3)(N3CC3)=N2)CCO1` (stereo not drawn): the activation was inactive: -12.1%.

`CNC(=O)Oc1cccc2c1OC(C)(C)C2`: the activation was inactive: -9.27%.

As for `C/C(O)=C(\C#N)C(=O)Nc1cc(Br)ccc1Br`, the activation was inactive: -42.9%.

The record behind these values is PubChem BioAssay AID1645887 (National Center for Advancing Translational Sciences (NCATS), 2021).
